Source: patent US20240254223A1 (NOVIMMUNE, published 2024)
Blank lines part the entries; values can stand above or below the binder they belong to.

What was measured:
[1] = biological target: T1, CD47 at the surface of Peak cells (human, UniProt Q08722); assay: flow cytometry, Peak cells, before cleavage
T1 construct: whole, on cells; also called cell surface CD47
Experimental: (§1) Binding activity of antibody-cytokine/receptor fusions before and after cleavage was also evaluated by flow cytometry. Peak cells derived from HEK 293 which are human cells expressing CD47 were used to evaluate masking efficacy and binding recovery to CD47 by flow cytometry. Peak cells were diluted in cold FACS buffer (PBS, 2% BSA) to 1.2×10⁶ cells/mL. 3×10⁵ cells/well were added in a 96 well V-bottom plate. The plate was then centrifugated for 5 min at 1300 rpm, 4° C. Supernatants were removed and cells were washed twice using FACS buffer. A serial dilution of antibody-cytokine/receptor fusions previously digested with MMP-9 or not digested as described above was prepared in FACS buffer. An irrelevant antibody was included. Then, 150 μL of each diluted antibody were added in corresponding well and incubated for 30 min at 4° C. Cells were washed twice with FACS buffer and 100 μL of a mouse anti human Fc-PE conjugated secondary antibody were added and the plate was incubated for 20 min at 4° C. Cells were then washed twice with FACS buffer. Finally, 150 μL of SYTOX blue dead cell stain (ThermoFisher) diluted to 1/5000 in FACS buffer were added before detection by flow cytometry with Cytoflex (Beckman Coulter). Acquisition was performed with 10000 events for each well. Data were analyzed by FlowJo software.

[2] = biological target: T2, His-tagged human CD47 (human, UniProt Q08722 in part, limits assumed); assay: BLI, His-CD47 on HIS1K sensor, antibody 15 µg/mL
T2 construct: loaded on HIS1K biosensors at 2.5 µg/mL; also called target antigen; not shown: His tag
Experimental: The capacity of the masking domains to inhibit binding activity of the antibody was evaluated by Bio-Layer Interferometry (BLI). […] Binding experiments were performed to evaluate the masking efficiency and the binding recovery after cleavage of the masking domains. BLI was performed on an Octet RED96 system (Sartorius). His-tagged human CD47 was diluted at 2.5 μg/mL in Kinetic Buffer (KB) (Sartorius) and loaded on HIS1K biosensors (anti-His tag antibody biosensors, Sartorius) for 300 seconds. Loaded biosensors were dipped into antibodies diluted at 15 μg/mL in KB for 300 seconds to monitor association. Then, biosensors were transferred in KB for dissociation for 60 seconds. Binding profiles were then analyzed with ForteBio Data Analysis software.

[3] = biological target: T3, high affinity trimeric IL-2R (IL-2Rα, IL-2Rβ and IL-2Rγ) on HEK-Blue IL-2 cells (UniProt P01589 22-272; P14784 27-551; P31785 23-369); assay: cell-based or functional assay
T3 sequence (looked up) 1: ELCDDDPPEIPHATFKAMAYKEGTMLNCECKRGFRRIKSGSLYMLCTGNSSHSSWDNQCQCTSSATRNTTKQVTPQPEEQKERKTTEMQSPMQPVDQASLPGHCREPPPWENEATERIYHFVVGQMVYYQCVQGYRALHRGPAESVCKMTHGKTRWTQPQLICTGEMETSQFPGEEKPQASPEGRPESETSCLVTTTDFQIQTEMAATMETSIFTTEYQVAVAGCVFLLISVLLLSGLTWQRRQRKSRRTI
T3 sequence (looked up) 2: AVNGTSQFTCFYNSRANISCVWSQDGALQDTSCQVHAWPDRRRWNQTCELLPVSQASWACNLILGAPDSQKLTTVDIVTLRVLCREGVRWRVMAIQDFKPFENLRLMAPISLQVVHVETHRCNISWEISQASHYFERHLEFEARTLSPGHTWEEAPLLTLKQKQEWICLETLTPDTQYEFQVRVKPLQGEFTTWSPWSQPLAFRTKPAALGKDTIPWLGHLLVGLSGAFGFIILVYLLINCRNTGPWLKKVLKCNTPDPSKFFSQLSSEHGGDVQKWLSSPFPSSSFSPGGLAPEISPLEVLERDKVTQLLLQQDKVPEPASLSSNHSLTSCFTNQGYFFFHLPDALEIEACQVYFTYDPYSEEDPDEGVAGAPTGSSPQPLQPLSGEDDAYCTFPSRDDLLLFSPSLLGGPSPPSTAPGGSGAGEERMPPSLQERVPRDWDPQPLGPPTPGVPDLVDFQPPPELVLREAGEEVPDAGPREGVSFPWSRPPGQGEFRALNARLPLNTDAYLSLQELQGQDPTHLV
T3 sequence (looked up) 3: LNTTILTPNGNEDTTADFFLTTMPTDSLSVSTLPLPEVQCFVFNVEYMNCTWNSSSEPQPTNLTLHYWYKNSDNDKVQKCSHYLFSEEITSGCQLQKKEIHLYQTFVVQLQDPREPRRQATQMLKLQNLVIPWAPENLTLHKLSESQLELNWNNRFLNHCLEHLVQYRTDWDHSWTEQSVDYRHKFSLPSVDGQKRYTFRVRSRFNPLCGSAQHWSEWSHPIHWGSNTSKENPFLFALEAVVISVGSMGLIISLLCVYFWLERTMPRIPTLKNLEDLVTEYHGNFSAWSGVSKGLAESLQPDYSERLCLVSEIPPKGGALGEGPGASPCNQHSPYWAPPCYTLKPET

[4] = biological target: T1, CD47 at the surface of Peak cells; assay: flow cytometry, Peak cells; EC50 before / EC50 after cleavage
Experimental: as §1

EC50 [1]: 47 nM | Binding before cleavage (BLI) [2]: 0.4 nm | EC50 before cleavage IL-2, HEK Blue IL-2 αβγ reporter assay [3]: 2.85 nM | EC50 ratio (BC/AC), HEK Blue IL-2 αβγ reporter assay [3]: 6 | Binding recovery (BC/AC) [4]: 32
B2: pNOVI V2K K91_M4_IL-2Rα_1_238_CM1_IL-2 Q126T_21_153_CM1 VKCK IL-2Rβ_1_239_CM1_VHCH (antibody, human IgG1, kappa)
light: ELCDDDPPEIPHATFKAMAYKEGTMLNCECKRGFRRIKSGSLYMLCTGNSSHSSWDNQCQCTSSATRNTTKQVTPQPEEQKERKTTEMQSPMQPVDQASLPGHCREPPPWENEATERIYHFVVGQMVYYQCVQGYRALHRGPAESVCKMTHGKTRWTQPQLICTGEMETSQFPGEEKPQASPEGRPESETSCLVTTTDFQIQTEMAATMETSIFTTEGGGGSVHMPLGFLGPGGGGS[about 150 residues with changes left out]GGGGSVHMPLGFLGPGGSDIQMTQSPSSLSASVGDRVTITCNVDQVIANWLNWYQQKPGKAPKLLIYAASSLQSGVPSRFSGSGSGTDFTLTISSLQPEDFATYYCQQMHPRAPKQFGQGTKVEIKRTVAAPSVFIFPPSDEQLKSGTASVVCLLNNFYPREAKVQWKVDNALQSGNSQESVTEQDSKDSTYSLSSTLTLSKADYEKHKVYACEVTHQGLSSPVTKSFNRGEC
heavy: AVNGTSQFTCFYNSRANISCVWSQDGALQDTSCQVHAWPDRRRWNQTCELLPVSQASWACNLILGAPDSQKLTTVDIVTLRVLCREGVRWRVMAIQDFKPFENLRLMAPISLQVVHVETHRCNISWEISQASHYFERHLEFEARTLSPGHTWEEAPLLTLKQKQEWICLETLTPDTQYEFQVRVKPLQGEFTTWSPWSQPLAFRTKPAALGKDGGGGSVHMPLGFLGPGGS[about 120 residues left out][about 100 residues left out][human IgG1 Fc left out]
notes: masked K91 fusion with IL-2 Q126T, uncleaved; also called n800; construct No 800

EC50 [1]: 14.3 nM | Binding before cleavage (BLI) [2]: 0.2 nm | EC50 before cleavage IL-2, HEK Blue IL-2 αβγ reporter assay [3]: 0.26 nM | EC50 ratio (BC/AC), HEK Blue IL-2 αβγ reporter assay [3]: 26
B4: pNOVI V2K K91_J1_IL-2Rα_1_238_CM1_IL-2_21_153_CM1 VKCK_IL-2Rα_1_238_CM1_IL-2_21_153_CM1 VHCH (antibody, human IgG1, kappa)
light: ELCDDDPPEIPHATFKAMAYKEGTMLNCECKRGFRRIKSGSLYMLCTGNSSHSSWDNQCQCTSSATRNTTKQVTPQPEEQKERKTTEMQSPMQPVDQASLPGHCREPPPWENEATERIYHFVVGQMVYYQCVQGYRALHRGPAESVCKMTHGKTRWTQPQLICTGEMETSQFPGEEKPQASPEGRPESETSCLVTTTDFQIQTEMAATMETSIFTTEGGGGSVHMPLGFLGPGGGGS[about 150 residues left out]GGGGSVHMPLGFLGPGGSDIQMTQSPSSLSASVGDRVTITCNVDQVIANWLNWYQQKPGKAPKLLIYAASSLQSGVPSRFSGSGSGTDFTLTISSLQPEDFATYYCQQMHPRAPKQFGQGTKVEIKRTVAAPSVFIFPPSDEQLKSGTASVVCLLNNFYPREAKVQWKVDNALQSGNSQESVTEQDSKDSTYSLSSTLTLSKADYEKHKVYACEVTHQGLSSPVTKSFNRGEC
heavy: ELCDDDPPEIPHATFKAMAYKEGTMLNCECKRGFRRIKSGSLYMLCTGNSSHSSWDNQCQCTSSATRNTTKQVTPQPEEQKERKTTEMQSPMQPVDQASLPGHCREPPPWENEATERIYHFVVGQMVYYQCVQGYRALHRGPAESVCKMTHGKTRWTQPQLICTGEMETSQFPGEEKPQASPEGRPESETSCLVTTTDFQIQTEMAATMETSIFTTEGGGGSVHMPLGFLGPGGGGS[about 150 residues left out]GGGGSVHMPLGFLGPGGS[about 120 residues left out][about 100 residues left out][human IgG1 Fc left out]
notes: masked K91 fusion, uncleaved; also called n1021; construct No 1021

The next lines start with the binder.

B1: pNOVI V2K K91_IL-2_CM1_VKCK_IL-2Rα WO LIN CM1_VHCH (antibody, human IgG1, kappa)
light: [about 150 residues left out]GGGGSVHMPLGFLGPGGSDIQMTQSPSSLSASVGDRVTITCNVDQVIANWLNWYQQKPGKAPKLLIYAASSLQSGVPSRFSGSGSGTDFTLTISSLQPEDFATYYCQQMHPRAPKQFGQGTKVEIKRTVAAPSVFIFPPSDEQLKSGTASVVCLLNNFYPREAKVQWKVDNALQSGNSQESVTEQDSKDSTYSLSSTLTLSKADYEKHKVYACEVTHQGLSSPVTKSFNRGEC
heavy: ELCDDDPPEIPHATFKAMAYKEGTMLNCECKRGFRRIKSGSLYMLCTGNSSHSSWDNQCQCTSSATRNTTKQVTPQPEEQKERKTTEMQSPMQPVDQASLPGHCREPPPWENEATERIYHFVVGQMVYYQCVQGYRALHRGPAESVCKMTHGKTRWTQPQLICTGEMETSQFPGEEKPQASPEGRPESETSCLVTTTDFQIQTEMAATMETSIFTTEVHMPLGFLGP[about 120 residues left out][about 100 residues left out][human IgG1 Fc left out]
notes: masked K91 fusion, uncleaved; also called n291; construct No 291
EC50 [1]: 6.9 nM | Binding before cleavage (BLI) [2]: 0.8 nm | EC50 before cleavage IL-2, HEK Blue IL-2 αβγ reporter assay [3]: 0.05 nM | EC50 ratio (BC/AC), HEK Blue IL-2 αβγ reporter assay [3]: 4 | Binding recovery (BC/AC) [4]: 18

B3: pNOVI V2K K91_IL-2 WO LIN CM1 VKCK_IL-2Rα WO LIN CM1_VHCH (antibody, human IgG1, kappa)
light: [about 150 residues left out]VHMPLGFLGPDIQMTQSPSSLSASVGDRVTITCNVDQVIANWLNWYQQKPGKAPKLLIYAASSLQSGVPSRFSGSGSGTDFTLTISSLQPEDFATYYCQQMHPRAPKQFGQGTKVEIKRTVAAPSVFIFPPSDEQLKSGTASVVCLLNNFYPREAKVQWKVDNALQSGNSQESVTEQDSKDSTYSLSSTLTLSKADYEKHKVYACEVTHQGLSSPVTKSFNRGEC
heavy: ELCDDDPPEIPHATFKAMAYKEGTMLNCECKRGFRRIKSGSLYMLCTGNSSHSSWDNQCQCTSSATRNTTKQVTPQPEEQKERKTTEMQSPMQPVDQASLPGHCREPPPWENEATERIYHFVVGQMVYYQCVQGYRALHRGPAESVCKMTHGKTRWTQPQLICTGEMETSQFPGEEKPQASPEGRPESETSCLVTTTDFQIQTEMAATMETSIFTTEVHMPLGFLGP[about 120 residues left out][about 100 residues left out][human IgG1 Fc left out]
notes: masked K91 fusion, uncleaved; also called n361; construct No 361
EC50 [1]: 9.9 nM | Binding before cleavage (BLI) [2]: 0.6 nm | EC50 before cleavage IL-2, HEK Blue IL-2 αβγ reporter assay [3]: 0.1 nM | Binding recovery (BC/AC) [4]: 5

B5: pNOVI V2K K91_IL15_CM1_VKCK_IL15Rα_Sushi 1_CM1_VHCH (antibody)
light: [about 120 residues left out]GGGGSVHMPLGFLGPGGSDIQMTQSPSSLSASVGDRVTITCNVDQVIANWLNWYQQKPGKAPKLLIYAASSLQSGVPSRFSGSGSGTDFTLTISSLQPEDFATYYCQQMHPRAPKQFGQGTKVEIKRTVAAPSVFIFPPSDEQLKSGTASVVCLLNNFYPREAKVQWKVDNALQSGNSQESVTEQDSKDSTYSLSSTLTLSKADYEKHKVYACEVTHQGLSSPVTKSFNRGEC
heavy: ITCPPPMSVEHADIWVKSYSLYSRERYICNSGFKRKAGTSSLTECVLNKATNVAHWTTPSLKCIRDGGGGSVHMPLGFLGPGGS[about 120 residues left out][about 100 residues left out][human IgG1 Fc left out]
notes: masked K91 fusion, uncleaved; 35% aggregates; also called n81; construct No 81
Binding before cleavage (BLI) [2]: 0.9 nm
